One assay concerns Human primary T cells. Briefly: In vitro antigen-independent expansion of T cells expressing constitutive or ACZ-regulated mbIL15 (cell numbers by flow cytometry). Type of assay: cell-based. As to conditions: in 10 days; no exogenous IL15. The method, then:
Human primary T cells capable of expressing constitutive mbIL15 or ACZ-regulated mbIL15 were prepared in accordance with methods described in Example 1 above.
After T cell transduction and expansion, CD3/CD28 beads were removed using magnets, cells were washed twice, resuspended in fresh media and counted. Cells were plated in 12-well plates at 1×10^6 in 2 mL. One well of untransduced cells was cultured in the presence of 2 ng/mL IL15 as a control. T cells expressing regulated constructs were cultured in the absence or presence of acetazolamide (ACZ, 30, 10, 3, 1, 0.3 μM). Cell numbers were monitored by flow cytometry every 3-4 days and cells were cultured for 10-12 days. At each time point 100 μL of cells were collected from wells and analyzed by flow cytometry. Cells were split as needed. Cell cultures were maintained in 12-well plates by taking a portion and adding media in a new plate. Volumes for each well were recorded before and after split to calculate final volume in cell number assessment. IL15 or ACZ were replenished at final concentration of the fresh media added during each split.
T cell numbers were determined by flow cytometry. Empty vector (EV) transduced cell numbers decreased to background levels between 3-5 days in the absence of IL15, and cells expanded 11-fold in the presence of 2 ng/mL exogenous IL15 (FIG. 3A). […]

Assay [1] concerns IL15 expression on T cells. Briefly: IL15 expression on T cells in vivo on day 25 (flow cytometry, IL15Ra-Fc). Also noted: species or system NSG mice. The following applies: constitutive constructs. The method, then: Human primary T cells capable of expressing constitutive mbIL15 or ACZ-regulated mbIL15 were prepared in accordance with methods described in Example 1 above. After T cell transduction and expansion, CD3/CD28 beads were removed using magnets, cells were washed twice, resuspended in fresh media and counted. T cells were mixed with expanded NK cells and each animal received 5×10^6 T cells and 2×10^6 expanded NK cells. Cells were infused by intravenous injections into NSG mice. Animals infused with T cells expressing regulated constructs were dosed daily with 200 mg/kg ACZ or vehicle by PO injections. Every 3-4 days, 50 μL blood was analyzed by flow cytometry for presence of T cells and NK cells using antibodies against mouse and human CD45, CD3 and CD56. IL15 expression on day 25 was analyzed using IL15Ra-Fc and fluorochrome conjugated anti-human IgG antibody.
IL15 expression on T cells in vivo on day 25 was analyzed by flow cytometry (FIG. 5C). T cells transduced with constitutive constructs IL15-292 and IL15-294 expressed high levels of IL15 (82% and 61%). IL15 expression was <1.5% in vehicle-treated IL15-293 and IL15-295 as well as EV groups. IL15 expression levels were 11% and 9% on T cells transduced with IL15-293 and IL15-295 in groups treated with ACZ.
(Flow cytometry measures light scatter and fluorescence of single cells or particles in a stream.)

In a further assay the test system is TIL. Briefly: Expression of constitutive and regulated mbIL15 in TIL in response to ACZ (flow cytometry). Format: cell-based, human. As to conditions: constitutive construct. How it is done: HEK293T cells were seeded on collagen coated tissue culture plates until 70% confluent. Cells were transfected with pELNS transfer vector carrying constitutive (IL15-292) or regulated (IL15-293) IL15 constructs, as well as packaging plasmids (pRSV.REV, pMDLg/pRRE and OT-BaEVg-002 (SEQ ID NO: 51)) using Lipofectamine 3000 transfection reagent in Opti-MEM media. Media was replaced 6-8 hrs post-transfection with serum-free media. Supernatants containing virus were harvested 24 hr post-transfection, fresh media was added, and supernatants were harvested again at 48 hr post-transfection. Viral supernatants were filtered to remove debris and concentrated by low speed ultracentrifugation. Virus were resuspended, aliquoted and stored at −80 C freezer.
96-well non-coated tissue culture plates were incubated with 35 μg per mL RetroNectin (Takara Bio) in PBS for 2 h at 37° C. or overnight at 4° C. RetroNectin was removed and the plates washed with PBS. […]
mbIL15 expression was determined by flow cytometry using two staining reagents: fluorochrome-conjugated anti-IL15 antibody as well as a recombinant protein comprised of extracellular domain of IL15Ra fused to human IgG1 Fc domain (IL15Ra-Fc). mbIL15+ cell frequency was determined based on co-staining with anti-IL15 and IL15Ra-Fc (identified as the IL15+IL15Ra-Fc+ double positive population).

B1: IL15-292: constitutive membrane-bound IL15 construct (AA SEQ ID NO: 22), no DRD, in pELNS lentiviral vector (protein)
chain: MDMRVPAQLLGLLLLWLSGARC[gap - about 120 residues]GSGSGSGSGSGSGSGSGSGSGSGSGSGSGSKQEHFPDNLLPSWAITLISVNGIFVICCLTYCFAPRCRERRRNERLRRESVRPVGS
With B1, the “T cell expansion, constitutive constructs” value with Human primary T cells is given as 18 -fold. Besides, the “IL15 expression on T cells in vivo” value in assay [1] was found to be 82%. Moreover, in the assay with TIL, the “TIL expressing mbIL15 (IL15+IL15Ra-Fc+ double positive)” value was 45.5%.

B2: IL15-294: constitutive membrane-bound IL15 construct with modified B7-1 cytoplasmic tail (AA SEQ ID NO: 26) (protein)
chain: MDMRVPAQLLGLLLLWLSGARC[gap - about 120 residues]GSGSGSGSGSGSGSGSGSGSGSGSGSGSGSKQEHFPDNLLPSWAITLISVNGIFVICCLTYCFAPRCRERARNERLRRETVRPVGS
For the molecule B2, the “T cell expansion, constitutive constructs” value in the assay with Human primary T cells is on record as 21 -fold. The “IL15 expression on T cells in vivo” value in assay [1] turned out to be 61%.

Values taken from patent publication US12642792B2, “CA2-IL15 fusion proteins for tunable regulation” (Obsidian Therapeutics, Inc., priority 2019, dated 2026).
